# From PubChem BioAssay AID504339 (National Center for Advancing Translational Sciences (NCATS), 2011)
# Hit rate of the full screen: of about 390,000 compounds, about 17,000 (4.4%) were called active. The inconclusive results got no clear call from the source; some entries with a clear call stand among them for comparison. Calls come from the whole dose curve; as a rule, active = well fitted inhibition curve with a large enough effect; inconclusive = small, poorly fitted or top-dose-only effect; inactive = no such curve, though single readings can be large or run the other way. Potencies beside an inconclusive call are fits to weak or partial responses and may not hold up.
# Molecular target: Lysine-specific demethylase 4A (Homo sapiens) (UniProt O75164)
# Sequence of UniProt O75164 (O75164 whole entry, looked up, the tested form may be a part): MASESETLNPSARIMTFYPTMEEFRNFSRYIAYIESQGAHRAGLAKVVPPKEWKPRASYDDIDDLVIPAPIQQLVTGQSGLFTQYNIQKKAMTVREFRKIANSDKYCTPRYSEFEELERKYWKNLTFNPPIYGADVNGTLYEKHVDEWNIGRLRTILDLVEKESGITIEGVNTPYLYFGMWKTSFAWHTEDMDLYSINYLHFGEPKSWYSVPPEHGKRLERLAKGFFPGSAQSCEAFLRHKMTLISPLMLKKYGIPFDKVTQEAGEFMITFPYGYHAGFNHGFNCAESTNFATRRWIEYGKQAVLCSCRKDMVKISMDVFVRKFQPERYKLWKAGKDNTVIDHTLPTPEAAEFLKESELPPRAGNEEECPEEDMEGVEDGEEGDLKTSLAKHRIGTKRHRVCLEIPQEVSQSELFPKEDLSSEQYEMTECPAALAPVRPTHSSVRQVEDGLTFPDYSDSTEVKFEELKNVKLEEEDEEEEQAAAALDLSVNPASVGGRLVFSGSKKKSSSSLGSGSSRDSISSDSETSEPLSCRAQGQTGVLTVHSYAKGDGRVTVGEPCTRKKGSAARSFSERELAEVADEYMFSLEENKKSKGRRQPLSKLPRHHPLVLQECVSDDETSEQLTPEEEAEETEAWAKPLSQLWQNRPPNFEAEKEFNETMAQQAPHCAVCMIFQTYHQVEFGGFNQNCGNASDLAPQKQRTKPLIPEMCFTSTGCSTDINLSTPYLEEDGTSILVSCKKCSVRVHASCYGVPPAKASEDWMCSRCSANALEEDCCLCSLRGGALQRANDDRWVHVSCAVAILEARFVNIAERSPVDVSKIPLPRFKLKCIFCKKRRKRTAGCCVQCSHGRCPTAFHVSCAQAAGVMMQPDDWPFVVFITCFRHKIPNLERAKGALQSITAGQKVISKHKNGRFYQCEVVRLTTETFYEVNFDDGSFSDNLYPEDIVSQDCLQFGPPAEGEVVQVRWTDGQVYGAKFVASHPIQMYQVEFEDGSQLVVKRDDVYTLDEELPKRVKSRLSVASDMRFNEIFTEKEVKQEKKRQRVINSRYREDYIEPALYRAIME
# Experiment: qHTS Assay for Inhibitors of JMJD2A-Tudor Domain; note: nearly all actives have a fitted effect of over 50% in size
# Conditions: AlphaScreen JMJD2A-Tudor / H3K4me3 peptide binding; activity change, negative = inhibition: at 114 µM (top of the series)
# % is set by controls: 0 for no effect and ±100 for the full control effect; potency is the fitted concentration of half-maximal effect; tags give direction and shape of the fitted curve.
Structure (SMILES),"activity change, negative = inhibition",Potency
COc1ccc(NS(=O)(=O)c2cccc(-c3nnc(-c4ccccc4)o3)c2)cc1,inactive: -7.59%,–
O=C(Nc1ccc(Nc2ccccc2)cc1)c1ccc(F)cc1,–,"inconclusive: 25.1 µM [inhibitor, full curve, poor fit]"
COc1ccc(Cc2nn[nH]n2)cc1,–,"inconclusive: 63.1 µM [inhibitor, partial curve, poor fit]"
COc1ccccc1CNC(=O)c1cc2sccc2n1C,–,"inconclusive: 56.2 µM [inhibitor, partial curve]"
Cn1c(=O)c2c(nc(CN3CCN(c4ccccc4)CC3)n2Cc2c(F)cccc2Cl)n(C)c1=O,–,"inconclusive: 31.6 µM [inhibitor, partial curve]"
O=S(=O)(c1ccc(Cl)cc1)N(CCCN1CCOCC1)Cc1cccs1,–,active: 8.91 µM
OCOCCCn1c(C2CCCN2c2nc(-c3ccc(F)cc3)cs2)nc2cc(Cl)c(N3CCCCC3)cc21 (stereo not given),–,"inconclusive: 11.2 µM [inhibitor, full curve, poor fit]"
CCOc1cc(/C=C2\C(=O)NN(c3ccccc3)C2=O)cc([N+](=O)[O-])c1O,–,active: 50.1 µM
O=C(O)Cc1sc(-c2ccc(Cl)cc2)nc1-c1ccccc1,–,active: 25.1 µM
CC(C)C(C(=O)NCC1CCCO1)N(C(=O)CNS(=O)(=O)c1ccccc1)c1ccc(F)cc1 (stereo not given),inactive: 2.86%,–
CN(C)c1ccc(-c2nc(-c3cccs3)c(-c3cccs3)[nH]2)cc1,–,"inconclusive: 17.8 µM [inhibitor, partial curve]"
Cc1ccc2nc(-c3ccccc3)cc(C(=O)NCC(c3ccco3)N(C)C)c2c1 (stereo not given),–,"inconclusive: 50.1 µM [inhibitor, partial curve]"
COc1cc2c(cc1OC)CN(C(=O)c1ccc(N3CCCC3)c([N+](=O)[O-])c1)CC2,–,active: 50.1 µM
O=C1C2=C(C(c3ccccc3)=NCCN2)C(c2cccc([N+](=O)[O-])c2)N1c1ccccc1 (stereo not given),–,active: 44.7 µM
Cc1cccc(C(c2sc3nc(-c4ccco4)nn3c2O)N2CCN(c3ccccc3F)CC2)c1 (stereo not given),–,"inconclusive: 50.1 µM [inhibitor, partial curve]"
CCCCn1c(N)c(-c2nc3ccccc3s2)c2c([N+](=O)[O-])nn(C)c(=O)c21,–,"inconclusive: 7.08 µM [inhibitor, full curve]"
CCn1cc(Br)c(C(=O)Nc2nccs2)n1,–,"inconclusive: 39.8 µM [inhibitor, single point]"
COC(=O)c1ccc(NS(=O)(=O)c2ccc3[nH]c4c(c3c2)CCCC4)cc1,–,"inconclusive: 44.7 µM [inhibitor, partial curve]"
CN(C)c1ccc2c(c1)OC(N)=C(C#N)C2c1cccc(F)c1 (stereo not given),–,active: 50.1 µM
COc1ccc(OCCN2C(=O)c3ccccc3C2=O)c([N+](=O)[O-])c1,inactive: -20.5%,–
Nc1nonc1C(=O)NCCN=Cc1cc(Cc2ccccc2)cc(Br)c1O,–,"inconclusive: 89.1 µM [inhibitor, single point]"
COc1cc(OC)cc(C(=O)Nn2cc(C(=O)Nc3ccc(F)cc3F)c3ccccc3c2=O)c1,inactive: -19.9%,–
S=C(N/N=C/c1ccco1)NC1CC2CCC1C2 (stereo not given),–,"inconclusive: 39.8 µM [inhibitor, partial curve]"
CNC(=S)N(CCc1c(C)[nH]c2ccc(F)cc12)Cc1ccco1,–,"inconclusive: 56.2 µM [inhibitor, partial curve]"

Structure (SMILES),"activity change, negative = inhibition",Potency
O=[N+]([O-])c1ccc(-n2nnnc2-c2ccccc2)c([N+](=O)[O-])c1,–,"inconclusive: 50.1 µM [inhibitor, partial curve]"
CCCCNC(=S)NCC(c1ccccc1)c1c[nH]c2ccccc12 (stereo not given),–,"inconclusive: 50.1 µM [inhibitor, partial curve]"
CCN(/N=C/c1ccccc1)c1cc(=O)n(C)c(=O)[nH]1,–,"inconclusive: 79.4 µM [inhibitor, single point]"
COc1ccc(-n2nnnc2SC(C)C(N)=O)cc1 (stereo not given),–,"inconclusive: 89.1 µM [inhibitor, single point]"
O=C(CN1N=C(C(F)(F)F)CC1(O)c1ccc([N+](=O)[O-])cc1)c1ccccc1 (stereo not given),–,"inconclusive: 100 µM [inhibitor, single point]"
Cc1ccc(COc2ccc(/C=N/O)cc2)cc1,inactive: -4.15%,–
O=C(COC(=O)CN1C(=O)NC2(CCCCC2)C1=O)Nc1cc(F)ccc1F,inactive: -14.9%,–
Cc1cc(C(=O)N/N=C/c2cc(Br)c(Br)o2)n[nH]1,–,"inconclusive: 89.1 µM [inhibitor, partial curve]"
CCN1/C(=C/c2sc(-c3ccccc3C)c[n+]2C)Sc2ccccc21,–,"inconclusive: 39.8 µM [inhibitor, single point]"
CCc1c(C)sc(NC(=O)CC#N)c1C#N,–,"inconclusive: 79.4 µM [inhibitor, partial curve]"
CCOC(=O)c1c(NC(=O)C(NCCN(C)C)c2ccccc2)sc2c1CCCC2 (stereo not given),–,"inconclusive: 35.5 µM [inhibitor, partial curve]"
CC1=NNC(=O)C1CCC(=O)N/N=C/c1ccc(Cl)cc1Cl (stereo not given),inactive: -12.3%,–
O=C(Cc1ccc(S(=O)(=O)N2CCOCC2)s1)NCC1CCCCC1,inactive: -22.6%,–
CC1=NN(C(N)=S)C(=O)C1N=Nc1c(Br)cc(Br)cc1Br (stereo not given),–,active: 56.2 µM
Clc1ccc2c(N/N=C/c3ccccc3Br)ccnc2c1,–,"inconclusive: 63.1 µM [inhibitor, partial curve]"
Cc1cc(C(=O)NNC(=O)c2ccc(C(F)(F)F)cc2)no1,–,"inconclusive: 15.8 µM [inhibitor, partial curve]"
O=C1CCC/C1=C/Nc1cccc(F)c1,–,active: 50.1 µM
CN(C)S(=O)(=O)c1cccc(CNCC2COc3ccccc3O2)c1 (stereo not given),–,active: 17.8 µM
CN(C)c1oc(-c2ccc(COc3ccccc3)o2)nc1C#N,–,"inconclusive: 20 µM [inhibitor, full curve]"
CC1CCN(c2ccccc2NC(=S)NC(=O)c2ccco2)CC1,–,"inconclusive: 50.1 µM [inhibitor, partial curve, poor fit]"
CSCCC(=O)Nc1nc(-c2ccccn2)cs1,–,active: 89.1 µM
CN(C)c1ccc(/C=N\NC(=O)c2csnn2)cc1,inactive: -5.51% [at 57.1 µM],–
O=C1c2ccc(Br)cc2C(=O)N1c1ccc(Cc2ccncc2)cc1,–,"inconclusive: 20 µM [inhibitor, full curve]"
CCOc1ccccc1NS(=O)(=O)c1ccc2[nH]c3c(c2c1)CCCCC3,–,"inconclusive: 31.6 µM [inhibitor, full curve]"

Structure (SMILES),"activity change, negative = inhibition",Potency
COc1ccc(S(=O)(=O)N(CC(=O)Nc2cc(C)ccc2OC)Cc2ccccc2)cc1,–,"inconclusive: 25.1 µM [inhibitor, single point]"
C/C(CC(=O)Nc1ccc(N(C)C)cc1)=N\NC(=O)c1ccccn1,–,"inconclusive: 44.7 µM [inhibitor, partial curve, poor fit]"
CC(C)NCCOCCOc1ccccc1F,–,active: 1.78 µM
Cc1ccc(C2c3c(oc4ccccc4c3=O)C(=O)N2CCCN2CCOCC2)o1 (stereo not given),–,active: 14.1 µM
Cc1ccc(NC(=O)NCCOCCn2c(=O)oc3ccccc32)cc1C,inactive: -16.4%,–
O=[N+]([O-])c1cccc(-c2n[nH]c(=S)n2-c2ccccc2)c1,–,active: 22.4 µM
O=C(O)Cc1ccc(NS(=O)(=O)c2ccccc2Cl)cc1,inactive: -3.58%,–
COc1cc(/C=N/NC(=O)c2cc3ccccc3cc2O)ccc1OCCN1CCCCC1,–,"inconclusive: 50.1 µM [inhibitor, partial curve]"
CC1=NN(c2nc(-c3ccc(C)cc3)cs2)C(=O)C1N=Nc1ccccc1O (stereo not given),–,"inconclusive: 35.5 µM [inhibitor, partial curve, poor fit]"
CSc1ccc(CN2CCCC(N3CCN(c4ccccc4)CC3)C2)cc1 (stereo not given),–,"inconclusive: 50.1 µM [inhibitor, partial curve]"
COc1cc(NC(=O)C(C)Oc2ccccc2)c(OC)cc1NC(=O)c1ccccc1 (stereo not given),–,"inconclusive: 22.4 µM [inhibitor, full curve]"
COc1ccc(-c2cc(C(=O)N3CCN(c4ccccc4)CC3)c3ccccc3n2)cc1OC,–,"inconclusive: 50.1 µM [inhibitor, partial curve]"
CN1c2cccc3cccc(c23)N(C)C1(C)C,–,"inconclusive: 44.7 µM [inhibitor, partial curve]"
CC(C)(C)C(=O)NC(=S)NNC(=O)c1ccc(-c2ccccc2)cc1,–,"inconclusive: 70.8 µM [inhibitor, partial curve]"
COCCn1c(SC(C)C(=O)NCC2CCCO2)nc2sc3c(c2c1=O)CCC3 (stereo not given),–,"inconclusive: 50.1 µM [inhibitor, partial curve]"
CCOC(=O)CCS(=O)(=O)c1ccc(-c2ccc(S(=O)(=O)CCC(=O)OCC)cc2)cc1,inactive: -14.1%,–
CCCNS(=O)(=O)c1ccc(CCC(=O)NCc2ccco2)cc1,–,"inconclusive: 39.8 µM [inhibitor, single point]"
Cc1ccnc2nc(C(=O)OCC(=O)c3ccc(NC(=O)CC(C)C)cc3)nn12,–,"inconclusive: 89.1 µM [inhibitor, partial curve, poor fit]"
COc1cc(/C=C2\C(=O)ON=C2c2ccccc2)cc(Br)c1O,–,active: 25.1 µM
O=C(COc1ccccc1)NCc1ccccc1,inactive: 0.614%,–
O=S(=O)(Nc1cccc2cccnc12)c1ccc(Br)s1,–,"inconclusive: 56.2 µM [inhibitor, partial curve, poor fit]"
Cc1ccc(N(C)S(=O)(=O)c2cccc(C(=O)Nc3ccc(N4CCOCC4)cc3)c2)cc1,–,"inconclusive: 39.8 µM [inhibitor, partial curve]"
